Source: PubChem BioAssay (EPA / NIEHS)
For some assays here: Most of the hits are listed elsewhere, so they are rarer here than in the full data. This is a selection; strong and weak results do not stand in their true shares. Records with an inconclusive call do not appear. A structure can be active in one record and inactive in another. Calls of active or inactive are those of the source. Rule for the calls, unless noted: active = hit-call score of the fitted dose curve at least 0.9, where 1 is the maximum; inconclusive = response in the unintended direction; inactive = score below 0.9.

Legend:
[1] = read-out: Human Leukocyte Antigen - DR isotype (HLADR), HLA-DRA (gene 3122); test: BSK_3C_HLADR: BioMAP Diversity Plus: 3C Assay for Human Leukocyte Antigen - DR isotype (HLADR) Biomarker Activity (AID 2283019; active = hit-call score of the fitted dose curve at least 0.9, where 1 is the maximum; inactive = score below 0.9;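 note: ELISA of cell-surface HLA-DR on HUVEC 24 h after dosing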); conditions: actives raise or lower the signal; primary human endothelial cells (HUVEC)
How it was run: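 Compound added to primary HUVEC cultures, 24 h incubation, then HLA-DR determined by ELISA; endpoint derived by bidirectional fitting relative to DMSO negative control.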

[2] = target: Nuclear receptor subfamily 1 group I member 2 (Homo sapiens) (UniProt O75469); test: ATG_PXR_TRANS: Attagene TRANS-FACTORIAL HepG2 Assay for human Pregnane X Receptor (PXR) (AID 2283008)
How it was run: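 Read-out is fluorescence of labelled reporter cDNA fragments separated by capillary electrophoresis after RT-PCR and HpaI digestion. Source: HepG2 cells carrying PXR-GAL4/UAS reporter constructs, treated 24 h; activity fitted upward relative to DMSO.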

[3] = target: Tyrosine-protein phosphatase non-receptor type 13 (Homo sapiens) (UniProt Q12923); test: NVS_ENZ_hPTPN13: NovaScreen (NVS) Enzymatic Assay for human Protein Tyrosine Phosphatase Non-receptor Type 13 (PTPN13) (AID 2283205)
How it was run: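 Cell-free assay of recombinant human PTPN13 with a fluorescent substrate, product separated by electrophoretic mobility shift and read 0.5 h after dosing. Primary screen at 25 uM in duplicate, then concentration-response up to 50 uM. Loss of signal fitted against DMSO.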

[4] = target: Peroxisome proliferator-activated receptor gamma (Homo sapiens) (UniProt P37231); test: OT_PPARg_PPARgSRC1_1440: Odyssey Thera (OT) 24-hour Protein-Complementation Assay for Peroxisome Proliferator-activated Receptor Gamma/ SRC-1 Co-activator (AID 2283388);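 note: nuclear to cytoplasmic ratio of reconstituted Venus YFP fluorescence in fixed imaged cells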
How it was run: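 Cells carrying the PPARg/SRC-1 fragment-complementation reporter receive compound for 24 hours, are fixed and counterstained with Draq5, then imaged. Increased nuclear relative to cytoplasmic YFP fluorescence above DMSO baseline indicates binding activity.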

[5] = CCTE_Mundy_HCI_hNP1_CellTiter: CCTE's Cell Titer-Glo 2 Assay in human neuroprogenitor cells for Viability, Mundy Lab (AID 2284241);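 note: a hit is a drop in ATP luminescence versus DMSO meaning reduced viability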
How it was run: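 Viability read as luminescent ATP content (CellTiter-Glo, 30 min room temperature) twenty-four hours after dosing, relative to DMSO. Cells: WA09-derived hNP1 neuroprogenitors on poly-L-ornithine/laminin, plated 40 to 44 hours before chemical.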

[6] = IUF_NPC3_neuronal_differentiation_120hr: Leibniz Research Institute for Environmental Medicine (IUF) 120-hour Neuronal Differentiation Assay (NPC3) (AID 2284301; active = hit-call score of the fitted dose curve at least 0.9, where 1 is the maximum; inactive = score below 0.9)
How it was run: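 Human fetal (GW 16-19) neural progenitor spheres (0.3 mm) plated on poly-D-lysine/laminin in N2 differentiation medium, exposed 120 h at 37C with half-medium renewal day 3; 7 concentrations. TUBB3+ cells as % of Hoechst nuclei, CNN-identified; DMSO baseline.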

[7] = CCTE_Shafer_MEA_dev_active_electrodes_number: CCTE's Neural Network Formation Assay for Number of Active Electrodes, Shafer Lab (AID 2284040);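 note: potency for loss of active electrodes versus DMSO so lower counts are hits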
How it was run: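 Primary rat cortical neurons on 16-electrode MEA wells, exposed from day 0 through day 12 with compound renewed at DIV 5 and 9 feeds. Active electrodes (mean firing ≥5 spikes/min) counted at DIV 5, 7, 9, 12; trapezoidal AUC across days, loss-of-signal versus DMSO.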

[8] = target: human Thyroid Receptor alpha (THRa1), THRA (gene 7067) (UniProt P10827); test: ATG_THRa1_TRANS: Attagene TRANS-FACTORIAL HepG2 Assay for human Thyroid Receptor alpha (THRa1) (AID 2283014)
How it was run: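 Measured here is mRNA from a GAL4-UAS reporter in transfected HepG2 cells carrying a Gal4-fused receptor, 24 h post-dose. DMSO served as negative control and baseline.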

[9] = target: Retinoic acid receptor RXR-alpha (Homo sapiens) (UniProt P19793); test: OT_NURR1_NURR1RXRa_1440: Odyssey Thera (OT) 24-hour HEK293T Protein Complementation Assay for Nurr1/retinoid X receptor (RXR) (AID 2283386)
How it was run: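 Interaction of Nurr1 with RXRα brings fused reporter fragments together in human HEK293T cells, restoring a functional reporter. Fluorescence intensity is measured 24 h after chemical treatment, and values are analysed in the positive direction against DMSO.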

[10] = read-out: Fatty acid synthase (Homo sapiens) (UniProt P49327); test: LTEA_HepaRG_FASN: Life Technologies and Expression Analysis (LTEA) Assay for Fatty Acid Synthase (FASN) using HepaRG (AID 2283448; active = hit-call score of the fitted dose curve at least 0.9, where 1 is the maximum; inactive = score below 0.9); conditions: actives raise or lower the signal; mRNA level, 48 h
How it was run: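 FASN expression changes, up or down relative to 0.5% DMSO, were measured by qRT-PCR in human HepaRG cells after 48 h treatment with chemicals at eight concentrations (half-log steps from 100 uM).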

[11] = CCTE_Mundy_HCI_Cortical_NOG_NeuronCount: CCTE's Neurite Outgrowth Assay in rat cortical cells for Neuron Count, Mundy Lab (AID 2284236);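 note: neurons counted by imaging betaIII-tubulin and Hoechst stained cortical cells; cells exposed to compound for about 48 hours before fixation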
How it was run: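 Read-out: neuron number by high-content imaging of betaIII-tubulin (Alexa Fluor-488) and Hoechst-labelled rat primary cortical cells.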

[12] = read-out: Monocyte Chemoattractant Protein-1 (MCP1), CCL2 (gene 6347); test: BSK_4H_MCP1: BioMAP Diversity Plus: 4H Assay for Monocyte Chemoattractant Protein-1 (MCP1) Biomarker Activity (AID 2283018; active = hit-call score of the fitted dose curve at least 0.9, where 1 is the maximum; inactive = score below 0.9); conditions: actives raise or lower the signal; primary human endothelial cells (HUVEC)
How it was run: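 ELISA read-out of MCP-1 from human vascular endothelial primary cells taken at 24 hours after compound exposure. Activity was fitted in both directions relative to DMSO, which served as negative control.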

[13] = CCTE_Shafer_MEA_dev_network_spike_duration_std: CCTE's Neural Network Formation Assay for Standard Deviation of Network Spike Duration, Shafer Lab (AID 2284052; active = hit-call score of the fitted dose curve at least 0.9, where 1 is the maximum; inactive = score below 0.9;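 note: area under curve of spike duration SD across recording days 5 to 12; hits are decreases in network spike duration SD versus DMSO vehicle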)
How it was run: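 Developing networks of rat cortical neurons were exposed over twelve days in vitro on 48-well MEA plates. Trapezoidal AUC of recordings (DIV 5–12) was analysed for signal loss relative to DMSO vehicle.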

[14] = read-out: Matrix Metallopeptidase 1 (MMP1), MMP1 (gene 4312); test: BSK_BE3C_MMP1: BioMAP Diversity Plus: BE3C Assay for Matrix Metallopeptidase 1 (MMP1) Biomarker Activity (AID 2283024; active = hit-call score of the fitted dose curve at least 0.9, where 1 is the maximum; inactive = score below 0.9); conditions: actives raise or lower the signal; primary human bronchial epithelial cells
How it was run: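 Human bronchial epithelial cells (BE3C system) exposed to compound for 24 h; MMP1 then quantified by ELISA. Activity was fitted in both directions relative to DMSO.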

[15] = read-out: Tissue plasminogen activator (tPA), PLAT (gene 5327); test: BSK_BE3C_tPA: BioMAP Diversity Plus: BE3C Assay for Tissue plasminogen activator (tPA) Biomarker Activity (AID 2283041; active = hit-call score of the fitted dose curve at least 0.9, where 1 is the maximum; inactive = score below 0.9); conditions: actives raise or lower the signal; primary human bronchial epithelial cells
How it was run: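 Primary human lung bronchial epithelial cultures receive test chemical; after 24 h, tPA is quantified by ELISA, and gain or loss of signal is fitted bidirectionally relative to DMSO baseline.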

[16] = read-out: Interferon-gamma inducible Protein 10 (IP10), CXCL10 (gene 3627); test: BSK_KF3CT_IP10: BioMAP Diversity Plus: KF3CT Assay for Interferon-gamma inducible Protein 10 (IP10) Biomarker Activity (AID 2283068; active = hit-call score of the fitted dose curve at least 0.9, where 1 is the maximum; inactive = score below 0.9); conditions: actives raise or lower the signal; primary human keratinocytes with fibroblasts
How it was run: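 Signal is secreted/surface IP-10 by ELISA in a human primary skin co-culture of keratinocytes and foreskin fibroblasts, taken 24 h post-dosing; DMSO served as negative control.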

[17] = BSK_SAg_SRB: Viability Assessment in the BioMAP Diversity Plus: SAg Assay (AID 2283096; active = hit-call score of the fitted dose curve at least 0.9, where 1 is the maximum; inactive = score below 0.9;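 note: cells read one day after compound addition; hits may be either gain or loss of signal compared with DMSO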); conditions: primary human HUVEC with PBMC
How it was run: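 Human umbilical vein endothelial cells co-cultured with PBMC, read 24 h after compound dosing. Total protein measured by sulforhodamine B staining (0.1% SRB after 10% TCA fixation, absorbance 560 nm); bidirectional fit versus DMSO baseline.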

[18] = target: human Retinoid X Receptor beta (RXRb), RXRB (gene 6257) (UniProt P28702); test: ATG_RXRb_TRANS: Attagene TRANS-FACTORIAL HepG2 Assay for human Retinoid X Receptor beta (RXRb) (AID 2283013)
How it was run: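 Transfect HepG2 with GAL4-UAS multi-reporter constructs (chimeric NR-Gal4, TRANS format); dose compound 24 h; isolate RNA, RT-PCR, FAM primer extension, HpaI digest; quantify by capillary electrophoresis; positive direction vs DMSO.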

[19] = read-out: Urokinase-type plasminogen activator receptor (uPAR), PLAUR (gene 5329); test: BSK_4H_uPAR: BioMAP Diversity Plus: 4H Assay for Urokinase-type plasminogen activator receptor (uPAR) Biomarker Activity (AID 2283030; active = hit-call score of the fitted dose curve at least 0.9, where 1 is the maximum; inactive = score below 0.9); conditions: actives raise or lower the signal; primary human endothelial cells (HUVEC)
How it was run: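 Endpoint derived via bidirectional curve fitting against DMSO baseline; readout was ELISA detection of uPAR on umbilical vein endothelial cells at 24 h post-treatment, with SRB-stained parallel cultures assessing cytotoxicity.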

[20] = target: Estrogen receptor (Homo sapiens) + Estrogen receptor beta (Homo sapiens) (UniProt P03372+Q92731); test: OT_ER_ERaERb_1440: Odyssey Thera (OT) 24-hour HEK293T Protein-Complementation Assay for Estrogen Receptor-alpha/-beta Homodimer (AID 2283356);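 note: heteromer of ER alpha and ER beta binding domains; hits raise reporter fluorescence and both agonists and antagonists give an increase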
How it was run: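 24 h exposure; HEK293T PCA cells with ERα/ERβ LBD fragments; signal rise in nuclear or whole-cell fluorescence over vehicle.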

[21] = target: Retinoic acid receptor RXR-alpha (Homo sapiens) (UniProt P19793); test: OT_NURR1_NURR1RXRa_0480: Odyssey Thera (OT) 8-hour HEK293T Protein Complementation Assay for Nurr1/retinoid X receptor (RXR) (AID 2283385)
How it was run: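 8 h compound exposure, HEK293T; Nurr1/RXRα fragment complementation; fluorescence intensity; positive fitting direction vs DMSO baseline.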

[22] = read-out: growth arrest and DNA damage 45 (GADD45G), GADD45G (gene 10912); test: LTEA_HepaRG_GADD45G: Life Technologies and Expression Analysis (LTEA) Assay for growth arrest and DNA damage 45 (GADD45G) using HepaRG (AID 2283499; active = hit-call score of the fitted dose curve at least 0.9, where 1 is the maximum; inactive = score below 0.9); conditions: actives raise or lower the signal; mRNA level, 48 h
How it was run: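 Concentration-response in HepaRG: 48 h dosing, 0.5% DMSO, highest level 100 uM. GADD45G expression by qRT-PCR, normalised to endogenous controls; bidirectional fit to DMSO.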

[23] = read-out: Lipase C (LIPC), LIPC (gene 3990); test: LTEA_HepaRG_LIPC: Life Technologies and Expression Analysis (LTEA) Assay for Lipase C (LIPC) using HepaRG (AID 2283514; active = hit-call score of the fitted dose curve at least 0.9, where 1 is the maximum; inactive = score below 0.9); conditions: actives raise or lower the signal; mRNA level, 48 h
How it was run: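 HepaRG cells, 48 h after plating, treated in duplicate for 48 h in serum-free induction medium over 8 half-log concentrations from 100 uM, 0.5% DMSO. LIPC mRNA by TaqMan qRT-PCR normalized to ACTB/GAPDH/POLR2A; bidirectional fit versus DMSO.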

[24] = Tanguay_ZF_120hpf_OTIC_legacy: (Legacy) Oregon State University Tanguay Lab 120 Hour Post-fertilization zebrafish Assay for Otic Vesicle Malformation (AID 2283639)
[25] = target: Estrogen receptor (Homo sapiens) (UniProt P03372); test: ATG_hERa_XSP1: Attagene TRANS-FACTORIAL Multi-Species (XSP1) HepG2 Assay for human Estrogen Receptor (ESR1) (AID 2283780)
How it was run: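 HepG2 cells transiently transfected with GAL4-UAS reporter units and chimeric NR-Gal4 constructs; 24 h after dosing, reporter mRNA quantified by RT-PCR and capillary electrophoresis. Medium contained 3 nM 6-alpha-fluorotestosterone; activity fitted as gain-of-signal versus DMSO.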

Compound: CSc1nnc(C(C)(C)C)c(=O)n1N
- outcome [1]: inactive

Compound: CC[C@H](C)[C@H]1O[C@]2(C=C[C@@H]1C)C[C@@H]1C[C@@H](C/C=C(\C)[C@@H](O[C@H]3C[C@H](OC)[C@@H](O[C@H]4C[C@H](OC)[C@@H](NC)[C@H](C)O4)[C@H](C)O3)[C@@H](C)/C=C/C=C3\CO[C@@H]4[C@H](O)C(C)=C[C@@H](C(=O)O1)[C@]34O)O2
- outcome [2]: inactive
- AC50 [3]: active: 35.7 µM
- outcome [4]: inactive
- AC50 [5]: active: 2.44 µM
- AC50 [6]: active: 5.14 µM

Compound: CC(C)COC(=O)c1ccccc1C(=O)OCC(C)C
- outcome [2]: inactive
- AC50 [7]: active: 13.6 µM

Compound: CCOC(=O)CC(SP(=S)(OC)OC)C(=O)OCC (stereo unspecified)
- outcome [8]: inactive
- outcome [9]: inactive
- outcome [10]: inactive
- AC50 [11]: active: 50 µM

Compound: CO/N=C(/C1=NOCCO1)c1ccccc1Oc1ncnc(Oc2ccccc2Cl)c1F
- AC50 [12]: active: 11.4 µM
- AC50 [13]: active: 0.647 µM

Compound: O=[N+]([O-])c1cc(C(F)(F)F)c(Cl)c([N+](=O)[O-])c1Nc1ncc(C(F)(F)F)cc1Cl
- outcome [14]: inactive
- AC50 [15]: active: 2.48 µM
- AC50 [16]: active: 1.2 µM
- AC50 [17]: active: 1.61 µM

Compound: C[C@]12CCC(=O)C=C1CC[C@@H]1[C@@H]2CC[C@]2(C)C(=O)CC[C@@H]12
- AC50 [18]: active: 26.2 µM
- outcome [19]: inactive
- outcome [20]: inactive
- outcome [21]: inactive
- outcome [22]: inactive
- outcome [23]: inactive
- AC50 [24]: active: 33.7 µM
- AC50 [25]: active: 0.0033 µM
